What all share (assay): SPR, Protein L capture
(Surface plasmon resonance follows binding to a sensor surface in real time, without labels.)

In test [1] the target is T1, PRYSPRY domain of human TRIM21 with N-terminal 6xHis tag (human).
T1 construct: Expressed in E. coli; also called hTRIM21; human TRIM21.PRYSPRY
T1 chain: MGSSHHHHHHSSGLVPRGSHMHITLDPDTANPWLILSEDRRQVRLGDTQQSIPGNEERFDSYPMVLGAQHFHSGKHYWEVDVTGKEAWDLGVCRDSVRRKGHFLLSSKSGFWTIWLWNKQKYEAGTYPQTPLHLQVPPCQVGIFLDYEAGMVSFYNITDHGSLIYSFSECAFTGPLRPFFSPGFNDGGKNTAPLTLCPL

Test [2] concerns the target T2, PRYSPRY domain of mouse TRIM21 with N-terminal 6xHis tag (mouse).
T2 construct: Expressed in E. coli; also called mTRIM21; mouse TRIM21.PRYSPRY
T2 chain: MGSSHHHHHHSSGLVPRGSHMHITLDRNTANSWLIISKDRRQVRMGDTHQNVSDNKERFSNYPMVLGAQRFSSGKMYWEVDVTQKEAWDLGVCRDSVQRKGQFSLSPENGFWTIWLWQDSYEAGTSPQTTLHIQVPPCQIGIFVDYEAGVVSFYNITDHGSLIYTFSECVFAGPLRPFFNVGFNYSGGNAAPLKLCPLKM

Test [3] has as its target T3, human FcRn (human, UniProt P55899 part only; P61769 part only, limits assumed).
T3 construct: also called hFcRn
T3 sequence (P55899 24-290 limits assumed, form in doubt, chain 1 of 2): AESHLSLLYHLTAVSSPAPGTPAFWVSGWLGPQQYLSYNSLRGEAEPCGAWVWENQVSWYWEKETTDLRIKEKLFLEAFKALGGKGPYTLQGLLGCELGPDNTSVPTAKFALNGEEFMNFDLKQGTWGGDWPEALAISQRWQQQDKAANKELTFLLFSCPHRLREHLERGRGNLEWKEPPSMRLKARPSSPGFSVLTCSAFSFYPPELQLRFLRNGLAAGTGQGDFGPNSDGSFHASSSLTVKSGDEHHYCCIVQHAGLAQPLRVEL
T3 sequence (P61769 21-119 limits assumed, form in doubt, chain 2 of 2, further chain): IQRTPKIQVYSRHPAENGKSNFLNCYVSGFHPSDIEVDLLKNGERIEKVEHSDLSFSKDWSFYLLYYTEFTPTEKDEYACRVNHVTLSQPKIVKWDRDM

B1: MRAH-G1d/MRAL-KT0 L432G (antibody, human IgG1, kappa)
heavy: QVQLQESGPGLVRPSQTLSLTCTVSGYSITSDHAWSWVRQPPGRGLEWIGYISYSGITTYNPSLKSRVTMLRDTSKNQFSLRLSSVTAADTAVYYCARSLARTTAMDYWGQGSLVTVSS[human IgG1 constant region with L432G (EU numbers) omitted here]
light: DIQMTQSPSSLSASVGDRVTITCRASQDISSYLNWYQQKPGKAPKLLIYYTSRLHSGVPSRFSGSGSGTDFTFTISSLQPEDIATYYCQQGNTLPYTFGQGTKVEIKRTVAAPSVFIFPPSDEQLKSGTASVVCLLNNFYPREAKVQWKVDNALQSGNSQESVTEQDSKDSTYSLSSTLTLSKADYEKHKVYACEVTHQGLSSPVTKSFNRGEC
notes: copies: 2 + 2
On to B1, for which the “hTRIM21 binding level ratio (variant/control antibody)” value in test [1] is 0.245. Besides, the “mTRIM21 binding level ratio (variant/control antibody)” value in test [2] is 1.81. The “hFcRn binding level ratio (variant/control antibody)” value in test [3] amounted to 0.56.

B2: MRAH-G1d/MRAL-KT0 M428I (antibody, human IgG1, kappa)
heavy: QVQLQESGPGLVRPSQTLSLTCTVSGYSITSDHAWSWVRQPPGRGLEWIGYISYSGITTYNPSLKSRVTMLRDTSKNQFSLRLSSVTAADTAVYYCARSLARTTAMDYWGQGSLVTVSS[human IgG1 constant region with M428I (EU numbers) omitted here]
light: B1 light
notes: copies: 2 + 2
As for B2, the “hTRIM21 binding level ratio (variant/control antibody)” value in test [1] was 0.935. Moreover, the “mTRIM21 binding level ratio (variant/control antibody)” value in test [2] stood at 2. In test [3], the “hFcRn binding level ratio (variant/control antibody)” value is 0.

B3: MRAH-G1d/MRAL-KT0 L432P (antibody, human IgG1, kappa)
heavy: QVQLQESGPGLVRPSQTLSLTCTVSGYSITSDHAWSWVRQPPGRGLEWIGYISYSGITTYNPSLKSRVTMLRDTSKNQFSLRLSSVTAADTAVYYCARSLARTTAMDYWGQGSLVTVSS[human IgG1 constant region with L432P (EU numbers) omitted here]
light: B1 light
notes: copies: 2 + 2
As for B3, in test [1], the “hTRIM21 binding level ratio (variant/control antibody)” value came out at 1.21. In test [2], the “mTRIM21 binding level ratio (variant/control antibody)” value was determined as 2.01. The “hFcRn binding level ratio (variant/control antibody)” value in test [3] was found to be 0.02.

B4: MRAH-G1d/MRAL-KT0 M428P (antibody, human IgG1, kappa)
heavy: QVQLQESGPGLVRPSQTLSLTCTVSGYSITSDHAWSWVRQPPGRGLEWIGYISYSGITTYNPSLKSRVTMLRDTSKNQFSLRLSSVTAADTAVYYCARSLARTTAMDYWGQGSLVTVSS[human IgG1 constant region with M428P (EU numbers) omitted here]
light: B1 light
notes: copies: 2 + 2
Take B4: the “hTRIM21 binding level ratio (variant/control antibody)” value in test [1] was 0.476. In addition, the “mTRIM21 binding level ratio (variant/control antibody)” value in test [2] turned out to be 1.8. Moreover, in test [3], the “hFcRn binding level ratio (variant/control antibody)” value was determined as 0.

B5: MRAH-G1d/MRAL-KT0 M428A (antibody, human IgG1, kappa)
heavy: QVQLQESGPGLVRPSQTLSLTCTVSGYSITSDHAWSWVRQPPGRGLEWIGYISYSGITTYNPSLKSRVTMLRDTSKNQFSLRLSSVTAADTAVYYCARSLARTTAMDYWGQGSLVTVSS[human IgG1 constant region with M428A (EU numbers) omitted here]
light: B1 light
notes: copies: 2 + 2
B5: in test [1], the “hTRIM21 binding level ratio (variant/control antibody)” value came out at 0.593. Further, the “mTRIM21 binding level ratio (variant/control antibody)” value in test [2] turned out to be 2.25. The “hFcRn binding level ratio (variant/control antibody)” value in test [3] is 0.02.

B6: MRAH-G1d/MRAL-KT0 M428H (antibody, human IgG1, kappa)
heavy: QVQLQESGPGLVRPSQTLSLTCTVSGYSITSDHAWSWVRQPPGRGLEWIGYISYSGITTYNPSLKSRVTMLRDTSKNQFSLRLSSVTAADTAVYYCARSLARTTAMDYWGQGSLVTVSS[human IgG1 constant region with M428H (EU numbers) omitted here]
light: B1 light
notes: copies: 2 + 2
With B6, in test [1], the “hTRIM21 binding level ratio (variant/control antibody)” value came out at 1.09. Besides, in test [2], the “mTRIM21 binding level ratio (variant/control antibody)” value was determined as 1.59. Further, the “hFcRn binding level ratio (variant/control antibody)” value in test [3] is 0.16.

B7: MRAH-G1d/MRAL-KT0 M428D (antibody, human IgG1, kappa)
heavy: QVQLQESGPGLVRPSQTLSLTCTVSGYSITSDHAWSWVRQPPGRGLEWIGYISYSGITTYNPSLKSRVTMLRDTSKNQFSLRLSSVTAADTAVYYCARSLARTTAMDYWGQGSLVTVSS[human IgG1 constant region with M428D (EU numbers) omitted here]
light: B1 light
notes: copies: 2 + 2
With B7, in test [1], the “hTRIM21 binding level ratio (variant/control antibody)” value was found to be 1.27. In addition, the “mTRIM21 binding level ratio (variant/control antibody)” value in test [2] is 2.7. Moreover, the “hFcRn binding level ratio (variant/control antibody)” value in test [3] was 0.24.

B8: MRAH-G1d/MRAL-KT0 M428G (antibody, human IgG1, kappa)
heavy: QVQLQESGPGLVRPSQTLSLTCTVSGYSITSDHAWSWVRQPPGRGLEWIGYISYSGITTYNPSLKSRVTMLRDTSKNQFSLRLSSVTAADTAVYYCARSLARTTAMDYWGQGSLVTVSS[human IgG1 constant region with M428G (EU numbers) omitted here]
light: B1 light
notes: copies: 2 + 2
For B8, the “hTRIM21 binding level ratio (variant/control antibody)” value in test [1] came to 0.674. In addition, the “mTRIM21 binding level ratio (variant/control antibody)” value in test [2] was found to be 2.24. In addition, the “hFcRn binding level ratio (variant/control antibody)” value in test [3] was 0.32.

B9: MRAH-G1d/MRAL-KT0 M428S (antibody, human IgG1, kappa)
heavy: QVQLQESGPGLVRPSQTLSLTCTVSGYSITSDHAWSWVRQPPGRGLEWIGYISYSGITTYNPSLKSRVTMLRDTSKNQFSLRLSSVTAADTAVYYCARSLARTTAMDYWGQGSLVTVSS[human IgG1 constant region with M428S (EU numbers) omitted here]
light: B1 light
notes: copies: 2 + 2
For the molecule B9, the “hTRIM21 binding level ratio (variant/control antibody)” value in test [1] was 0.826. Further, the “mTRIM21 binding level ratio (variant/control antibody)” value in test [2] worked out at 3.24. The “hFcRn binding level ratio (variant/control antibody)” value in test [3] was 0.19.

B10: MRAH-G1d/MRAL-KT0 L432M (antibody, human IgG1, kappa)
heavy: QVQLQESGPGLVRPSQTLSLTCTVSGYSITSDHAWSWVRQPPGRGLEWIGYISYSGITTYNPSLKSRVTMLRDTSKNQFSLRLSSVTAADTAVYYCARSLARTTAMDYWGQGSLVTVSS[human IgG1 constant region with L432M (EU numbers) omitted here]
light: B1 light
notes: copies: 2 + 2
B10: in test [1], the “hTRIM21 binding level ratio (variant/control antibody)” value was determined as 1.1. Also, the “mTRIM21 binding level ratio (variant/control antibody)” value in test [2] amounted to 2.15. The “hFcRn binding level ratio (variant/control antibody)” value in test [3] is 0.75.

B11: MRAH-G1d/MRAL-KT0 L432I (antibody, human IgG1, kappa)
heavy: QVQLQESGPGLVRPSQTLSLTCTVSGYSITSDHAWSWVRQPPGRGLEWIGYISYSGITTYNPSLKSRVTMLRDTSKNQFSLRLSSVTAADTAVYYCARSLARTTAMDYWGQGSLVTVSS[human IgG1 constant region with L432I (EU numbers) omitted here]
light: B1 light
notes: copies: 2 + 2
In the case of B11, in test [1], the “hTRIM21 binding level ratio (variant/control antibody)” value stood at 0.657. For the same molecule, the “mTRIM21 binding level ratio (variant/control antibody)” value in test [2] worked out at 2.29. The “hFcRn binding level ratio (variant/control antibody)” value in test [3] is 0.59.

B12: MRAH-G1d/MRAL-KT0 M428E (antibody, human IgG1, kappa)
heavy: QVQLQESGPGLVRPSQTLSLTCTVSGYSITSDHAWSWVRQPPGRGLEWIGYISYSGITTYNPSLKSRVTMLRDTSKNQFSLRLSSVTAADTAVYYCARSLARTTAMDYWGQGSLVTVSS[human IgG1 constant region with M428E (EU numbers) omitted here]
light: B1 light
notes: copies: 2 + 2
Regarding B12, the “hTRIM21 binding level ratio (variant/control antibody)” value in test [1] was 1.16. Also, the “mTRIM21 binding level ratio (variant/control antibody)” value in test [2] was 1.47. The “hFcRn binding level ratio (variant/control antibody)” value in test [3] came to 0.32.
